# The supplement of paper PMC3334620
# Over roughly 33,000 sequences, “E-score (-0.5 to 0.5)” has its median near -0.056; the highest 2% begin near 0.38. The list shows a part of the results.
# Biological target: Stb4 (UniProt P50104)
# Test: PBM E-score (8-mer binding enrichment) (E-score (-0.5 to 0.5)); higher = stronger / more preferred TF binding; most listed sequences are background and not binding sites
# Conditions: protein concentration: 200 nM; construct: GST-DNA-binding domain
# In short: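 GST-tagged yeast TFs (full-length or DNA-binding domain) were made by PURExpress in vitro transcription/translation and applied at about 100-200 nM to universal all-10-mer Agilent arrays. The arrays were made double-stranded by primer extension, on fresh or once-stripped slides. Bound protein was detected with fluorescent anti-GST, and scans were normalised with masliner. Each ungapped eight-base word, pooled with its reverse complement, received an E-score (modified Wilcoxon-Mann-Whitney statistic) from the Universal PBM Analysis Suite.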
row,Sequence,PBM E-score
1,AATCTAAT,-0.0701
2,CGGCGGAA,0.408
3,AGGTTAGA,-0.0231
4,AGTTCACA,-0.153
5,TCAATCAA,-0.11
6,ATCCCCCC,-0.15
7,CGTATATC,-0.105
8,ACCGCAAC,0.142
9,CGTGCCTA,-0.149
10,CTCAGGCC,-0.198
11,CTTTTCCA,-0.00677
12,ACTCCGCT,-0.0692
13,AGTACTCG,0.0502
14,CGCCAGGC,0.0543
15,AAGTGAAG,-0.249
16,AAACGGCT,0.108
17,ATGGAGTG,-0.277
18,ACTATCAT,0.0307
19,TAGGGGAA,-0.224
20,ACAGTCCC,0.0467
21,GCATGCAC,-0.242
22,CCGAATCA,0.361

row,Sequence,PBM E-score
1,GCCATTAA,-0.0602
2,GACTCCCA,-0.0601
3,GCGTTATA,-0.14
4,GACACGAA,-0.124
5,GGGTCGTA,0.068
6,CATGGGTC,-0.162
7,GAATCAAC,0.0993
8,AGCTCTAG,-0.12
9,TACGTGCA,-0.0413
10,CACATCAA,-0.0888
11,AGAAGGAT,-0.306
12,CCTTGAAG,-0.197
13,ACCCCATA,0.167
14,CAACGGAC,0.0791
15,ATGGGCCC,0.0804
16,CTTCGTGC,-0.0909
17,AGGGCGTC,0.172
18,TCCCGACA,0.355
19,AAAGAATA,-0.263
20,GTCCTCTA,-0.27
21,AGACTTCA,-0.223
22,AATAAGAA,0.0781

row,Sequence,PBM E-score
1,ACGCCAGC,-0.254
2,TAGCCTCA,-0.198
3,GGCGACTA,-0.107
4,CTCAATCC,0.0397
5,CTCCCCTA,0.0813
6,ATTTTACA,-0.174
7,CGCTTGCA,-0.138
8,CGCCGCAG,-0.0602
9,AAAACACC,0.118
10,CTTCAGCC,-0.0696
11,ACGTAGCG,-0.15
12,ACGACAAA,0.129
13,AGCAGGCA,-0.196
14,TACCACAA,0.0502
15,TCCTAACA,-0.279
16,AGTCGATC,0.115
17,AATTGGTA,-0.124
18,GCTGTCTA,-0.0324
19,CGATTCAG,-0.0824
20,CCATTAGC,-0.194
21,CAAGGTCG,-0.0307
22,AAGAGTCT,-0.241

row,Sequence,PBM E-score
1,CACTGAAG,0.0166
2,CGGGCCTC,0.112
3,CGAGTTAA,0.161
4,CGTAATTA,-0.0276
5,CGTACGAC,-0.169
6,CAGATCAC,-0.15
7,GGAGTCGA,-0.0684
8,CGATGGAG,0.211
9,ACTGGGAT,-0.0522
10,CGGCAGGC,0.188
11,AGGCAAGG,-0.167
12,ACATATAC,-0.00625
13,ATGGACGG,0.161
14,CGGCGGGC,0.212
15,GGTAGTTA,0.127
16,ACGCTGGG,-0.236
17,GTGATTCA,-0.278
18,ACGACGCC,-0.172
19,ATGCGAGA,-0.117
20,CCGCTGCC,0.127
21,CAAATACC,0.00475
22,CAGTCCGC,-0.139

row,Sequence,PBM E-score
1,CACCGTGG,-0.249
2,GGCTGCGA,0.147
3,AGCTAAAG,-0.158
4,CATCAAAG,-0.21
5,ACTACGTG,-0.182
6,AAACCTTA,-0.124
7,AAACTATA,-0.0587
8,GAGATCTC,0.106
9,ATCCTGTA,-0.141
10,AGCAAATG,-0.266
11,GGCATTAC,0.139
12,TAGAGACA,-0.195
13,ATCGTGAG,-0.0289
14,CGCGTCAA,-0.137
15,AGCCAAAC,0.118
16,CGAATCTC,0.181
17,ATACTAAA,0.00699
18,CAATCGGG,0.265
19,CTGCGTCC,-0.195
20,GGCTTTAA,-0.0247
21,ATGGTGGC,-0.116
